# Source: the supplement of paper PMC8728848
# The list shows a part of the results.
# B1: FimA-N3 (Actinomyces oris) (protein)
# chain: MHHHHHHSSGVDLGTENLYFQSNAGLQGAQFQLYKAKNAYANTCSNEKEGAPIAINGQTTLTTDAQGAIDIKGLFISDSIDGADRDNQVNAMERCYVLVETKAPAGYVLPAGNGAATPVKVKAGEETTDN
# Experiments:
# Assay in all cases: glycan array binding signal (z-score within array); higher = stronger binding
# Conditions in all cases: glycan notation: IUPAC condensed, linker removed
# GlcNAc(b1-3)Gal(b1-4)Glc = target: GlcNAc(b1-3)Gal(b1-4)Glc
# Procedure, shortened: (§1)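 From the Consortium for Functional Glycomics database, 3228 arrays were curated, keeping only those whose protein sequence was available. Binding is given as a within-array Z-score averaged across arrays sharing a protein sequence and across linkers. Negative Z-scores can be read as non-binding.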
# [1] = target: GlcNAc(b1-3)Gal(b1-4)GlcNAc
# Procedure, shortened: as §1
# [2] = target: GlcNAc(b1-3)Gal(b1-4)GlcNAc(b1-2)Man(a1-3)[GlcNAc(b1-3)Gal(b1-4)GlcNAc(b1-2)Man(a1-6)]Man(b1-4)GlcNAc(b1-4)GlcNAc
# Procedure, shortened: as §1
# [3] = target: GlcNAc(b1-3)Gal(b1-4)GlcNAc(b1-2)Man(a1-3)[GlcNAc(b1-3)Gal(b1-4)GlcNAc(b1-2)Man(a1-6)]Man(b1-4)GlcNAc(b1-4)[Fuc(a1-6)]GlcNAc
# Procedure, shortened: as §1
# [4] = target: GlcNAc(b1-3)Gal(b1-4)GlcNAc(b1-2)[GlcNAc(b1-3)Gal(b1-4)GlcNAc(b1-6)]Man(a1-6)[GlcNAc(b1-3)Gal(b1-4)GlcNAc(b1-2)Man(a1-3)]Man(b1-4)GlcNAc(b1-4)GlcNAc
# Procedure, shortened: as §1
# [5] = target: GlcNAc(b1-3)Gal(b1-4)GlcNAc(b1-3)Gal(b1-4)GlcNAc
# Procedure, shortened: as §1
# [6] = target: GlcNAc(b1-3)Gal(b1-4)GlcNAc(b1-3)Gal(b1-4)GlcNAc(b1-2)Man(a1-3)[GlcNAc(b1-3)Gal(b1-4)GlcNAc(b1-3)Gal(b1-4)GlcNAc(b1-2)Man(a1-6)]Man(b1-4)GlcNAc(b1-4)GlcNAc
# Procedure, shortened: as §1
# [7] = target: GlcNAc(b1-3)Gal(b1-4)GlcNAc(b1-3)Gal(b1-4)GlcNAc(b1-2)Man(a1-3)[GlcNAc(b1-3)Gal(b1-4)GlcNAc(b1-3)Gal(b1-4)GlcNAc(b1-2)Man(a1-6)]Man(b1-4)GlcNAc(b1-4)[Fuc(a1-6)]GlcNAc
# Procedure, shortened: as §1
# [8] = target: GlcNAc(b1-3)Gal(b1-4)GlcNAc(b1-3)Gal(b1-4)GlcNAc(b1-2)[GlcNAc(b1-3)Gal(b1-4)GlcNAc(b1-3)Gal(b1-4)GlcNAc(b1-6)]Man(a1-6)[GlcNAc(b1-3)Gal(b1-4)GlcNAc(b1-3)Gal(b1-4)GlcNAc(b1-2)Man(a1-3)]Man(b1-4)GlcNAc(b1-4)[Fuc(a1-6)]GlcNAc
# Procedure, shortened: as §1
# [9] = target: GlcNAc(b1-3)Gal(b1-4)GlcNAc(b1-3)Gal(b1-4)GlcNAc(b1-3)Gal(b1-4)GlcNAc(b1-2)Man(a1-3)[GlcNAc(b1-3)Gal(b1-4)GlcNAc(b1-3)Gal(b1-4)GlcNAc(b1-3)Gal(b1-4)GlcNAc(b1-2)Man(a1-6)]Man(b1-4)GlcNAc(b1-4)GlcNAc
# Procedure, shortened: as §1
# [10] = target: GlcNAc(b1-3)Gal(b1-4)GlcNAc(b1-3)Gal(b1-4)GlcNAc(b1-3)Gal(b1-4)GlcNAc(b1-2)Man(a1-3)[GlcNAc(b1-3)Gal(b1-4)GlcNAc(b1-3)Gal(b1-4)GlcNAc(b1-3)Gal(b1-4)GlcNAc(b1-2)Man(a1-6)]Man(b1-4)GlcNAc(b1-4)[Fuc(a1-6)]GlcNAc
# Procedure, shortened: as §1
# [11] = target: GlcNAc(b1-3)Gal(b1-4)GlcNAc(b1-3)Gal(b1-4)GlcNAc(b1-3)Gal(b1-4)GlcNAc(b1-2)[GlcNAc(b1-3)Gal(b1-4)GlcNAc(b1-3)Gal(b1-4)GlcNAc(b1-3)Gal(b1-4)GlcNAc(b1-6)]Man(a1-6)[GlcNAc(b1-3)Gal(b1-4)GlcNAc(b1-3)Gal(b1-4)GlcNAc(b1-3)Gal(b1-4)GlcNAc(b1-2)Man(a1-3)]Man(b1-4)GlcNAc(b1-4)[Fuc(a1-6)]GlcNAc
# Procedure, shortened: as §1
# [12] = target: GlcNAc(b1-3)Gal(b1-4)GlcNAc(b1-3)Gal(b1-4)GlcNAc(b1-3)Gal(b1-4)GlcNAc(b1-3)Gal(b1-4)GlcNAc(b1-2)Man(a1-3)[GlcNAc(b1-3)Gal(b1-4)GlcNAc(b1-3)Gal(b1-4)GlcNAc(b1-3)Gal(b1-4)GlcNAc(b1-3)Gal(b1-4)GlcNAc(b1-2)Man(a1-6)]Man(b1-4)GlcNAc(b1-4)GlcNAc
# Procedure, shortened: as §1
# [13] = target: GlcNAc(b1-3)Gal(b1-4)GlcNAc(b1-3)Gal(b1-4)GlcNAc(b1-3)Gal(b1-4)GlcNAc(b1-3)Gal(b1-4)GlcNAc(b1-2)Man(a1-3)[GlcNAc(b1-3)Gal(b1-4)GlcNAc(b1-3)Gal(b1-4)GlcNAc(b1-3)Gal(b1-4)GlcNAc(b1-3)Gal(b1-4)GlcNAc(b1-2)Man(a1-6)]Man(b1-4)GlcNAc(b1-4)[Fuc(a1-6)]GlcNAc
# Procedure, shortened: as §1
# [14] = target: GlcNAc(b1-3)Gal(b1-4)GlcNAc(b1-3)Gal(b1-4)GlcNAc(b1-3)Gal(b1-4)GlcNAc(b1-3)Gal(b1-4)GlcNAc(b1-2)[GlcNAc(b1-3)Gal(b1-4)GlcNAc(b1-3)Gal(b1-4)GlcNAc(b1-3)Gal(b1-4)GlcNAc(b1-3)Gal(b1-4)GlcNAc(b1-6)]Man(a1-6)[GlcNAc(b1-3)Gal(b1-4)GlcNAc(b1-3)Gal(b1-4)GlcNAc(b1-3)Gal(b1-4)GlcNAc(b1-3)Gal(b1-4)GlcNAc(b1-2)Man(a1-3)]Man(b1-4)GlcNAc(b1-4)[Fuc(a1-6)]GlcNAc
# Procedure, shortened: as §1
# [15] = target: GlcNAc(b1-3)Gal(b1-4)GlcNAc(b1-3)Gal(b1-4)GlcNAc(b1-3)GalNAc
# Procedure, shortened: as §1
# [16] = target: GlcNAc(b1-3)Gal(b1-4)GlcNAc(b1-3)GalNAc
# Procedure, shortened: as §1
# [17] = target: GlcNAc(b1-3)Gal(b1-4)GlcNAc(b1-3)[GlcNAc(b1-3)Gal(b1-4)GlcNAc(b1-3)]GalNAc
# Procedure, shortened: as §1
# [18] = target: GlcNAc(b1-3)Gal(b1-4)GlcNAc(b1-6)[Gal(b1-3)]GalNAc
# Procedure, shortened: as §1
# [19] = target: GlcNAc(b1-3)Gal(b1-4)GlcNAc(b1-6)[GlcNAc(b1-3)Gal(b1-3)]GalNAc
# Procedure, shortened: as §1
# [20] = target: GlcNAc(b1-3)Gal(b1-4)GlcNAc(b1-6)[GlcNAc(b1-3)]Gal(b1-4)GlcNAc
# Procedure, shortened: as §1
# GlcNAc(b1-3)GalNAc = target: GlcNAc(b1-3)GalNAc
# Procedure, shortened: as §1
binder,measurement,setting,value
B1,glycan array binding signal (z-score),GlcNAc(b1-3)Gal(b1-4)Glc,-0.359
same,glycan array binding signal (z-score),[1],-0.339
same,glycan array binding signal (z-score),[2],-0.324
same,glycan array binding signal (z-score),[3],0.925
same,glycan array binding signal (z-score),[4],-0.443
same,glycan array binding signal (z-score),[5],-0.366
same,glycan array binding signal (z-score),[6],0.239
same,glycan array binding signal (z-score),[7],0.721
same,glycan array binding signal (z-score),[8],0.202
same,glycan array binding signal (z-score),[9],-0.568
same,glycan array binding signal (z-score),[10],-0.073
same,glycan array binding signal (z-score),[11],0.165
same,glycan array binding signal (z-score),[12],-0.047
same,glycan array binding signal (z-score),[13],-0.204
same,glycan array binding signal (z-score),[14],-0.433
same,glycan array binding signal (z-score),[15],0.003
same,glycan array binding signal (z-score),[16],0.471
same,glycan array binding signal (z-score),[17],-0.624
same,glycan array binding signal (z-score),[18],-0.482
same,glycan array binding signal (z-score),[19],-0.122
same,glycan array binding signal (z-score),[20],-0.297
same,glycan array binding signal (z-score),GlcNAc(b1-3)GalNAc,-0.027
